Source: the supplement of paper PMC7125110
± gives the standard error. This sample is rich in variants without activity.

B1: glmS ribozyme (parent)
chain: AUAAAAGCGCCAGAACUACAGAAAUGUAGUUGACGAGGAGGAGGUUUAUCGAAUUUUCGGCGGAUGCCUCCAAA

Legend:
Settings in all cases: with glucosamine-6-phosphate
glucosamine-6-phosphate [1] = variants of: B1; assay: self-cleavage kobs at 40 uM GlcN6P; higher = faster cleavage; RNA array
How it was run: (§1)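 Over ~14 h at 37 °C, tiles were imaged as glucosamine-6-phosphate (40 μM to 10 mM) in HEPES/KCl/Mg(OAc)2 buffer flowed across sequenced MiSeq chips. The chips carried barcoded ribozyme variants transcribed in situ by E. coli RNA polymerase and tracked with a hybridised Cy3 probe. After normalisation to baseline and to non-cleaving reference variants, one- or two-exponential decay fits of per-tile medians gave kobs. kcat and KM followed from weighted Michaelis–Menten fits across concentrations.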

glucosamine-6-phosphate [2] = variants of: B1; assay: self-cleavage kobs at 160 uM GlcN6P; higher = faster cleavage; RNA array
How it was run: as §1

glucosamine-6-phosphate [3] = variants of: B1; assay: self-cleavage kobs at 10000 uM GlcN6P; higher = faster cleavage; RNA array
How it was run: as §1

glucosamine-6-phosphate [4] = variants of: B1; assay: self-cleavage kobs at 640 uM GlcN6P; higher = faster cleavage; RNA array
How it was run: as §1

glucosamine-6-phosphate [5] = variants of: B1; assay: self-cleavage kobs at 2500 uM GlcN6P; higher = faster cleavage; RNA array
How it was run: as §1

| Variant | self-cleavage kobs at 40 uM GlcN6P (glucosamine-6-phosphate [1]) [s⁻¹] | self-cleavage kobs at 160 uM GlcN6P (glucosamine-6-phosphate [2]) [s⁻¹] | self-cleavage kobs at 10000 uM GlcN6P (glucosamine-6-phosphate [3]) [s⁻¹] | self-cleavage kobs at 640 uM GlcN6P (glucosamine-6-phosphate [4]) [s⁻¹] | self-cleavage kobs at 2500 uM GlcN6P (glucosamine-6-phosphate [5]) [s⁻¹] |
| --- | --- | --- | --- | --- | --- |
| A39U G51A | < 1e-05 | < 1e-05 | < 1e-05 | – | – |
| G43U G60A | < 1e-05 | < 1e-05 | < 1e-05 | < 1e-05 | < 1e-05 |
| G41A A52C | < 1e-05 | < 1e-05 | – | < 1e-05 | – |
| G37U G40U U45C | < 1e-05 | – | – | – | – |
| A42C C50G | < 1e-05 | – | < 1e-05 | – | – |
| G44U G60C | < 1e-05 | < 1e-05 | < 1e-05 | < 1e-05 | < 1e-05 |
| A42G U55G G59C | < 1e-05 | – | – | – | – |
| G44U U56A G60U U69G | < 1e-05 | < 1e-05 | – | < 1e-05 | < 1e-05 |
| G40A A42G C61G | < 1e-05 | – | < 1e-05 | – | – |
| G40C G51C C61A | < 1e-05 | – | < 1e-05 | < 1e-05 | – |
| G37U G43C A48U G51A C70G | < 1e-05 | – | – | – | < 1e-05 |
| G37U U57A | < 1e-05 | – | < 1e-05 | – | – |
| G40C C67G | < 1e-05 | < 1e-05 | – | – | – |
| G41U U49A | < 1e-05 | – | < 1e-05 | < 1e-05 | – |
| G43C C50U | < 1e-05 | < 1e-05 | < 1e-05 | < 1e-05 | < 1e-05 |
| A42C C70G | < 1e-05 | < 1e-05 | – | – | – |
| A42G G59U | < 1e-05 | – | – | – | – |
| G44A G60U A64G U69C | < 1e-05 | – | – | – | – |
| G40U G43A | < 1e-05 | < 1e-05 | < 1e-05 | < 1e-05 | – |
| G44U A48C | < 1e-05 | < 1e-05 | < 1e-05 | < 1e-05 | – |
| G44U A48U | < 1e-05 | < 1e-05 | – | < 1e-05 | < 1e-05 |
| G43C G51A | < 1e-05 | < 1e-05 | < 1e-05 | – | < 1e-05 |
| A42G G63U | < 1e-05 | < 1e-05 | – | < 1e-05 | < 1e-05 |

| Variant | self-cleavage kobs at 40 uM GlcN6P (glucosamine-6-phosphate [1]) [s⁻¹] | self-cleavage kobs at 160 uM GlcN6P (glucosamine-6-phosphate [2]) [s⁻¹] | self-cleavage kobs at 10000 uM GlcN6P (glucosamine-6-phosphate [3]) [s⁻¹] | self-cleavage kobs at 640 uM GlcN6P (glucosamine-6-phosphate [4]) [s⁻¹] | self-cleavage kobs at 2500 uM GlcN6P (glucosamine-6-phosphate [5]) [s⁻¹] |
| --- | --- | --- | --- | --- | --- |
| G40C U56C | < 1e-05 | < 1e-05 | 5.45e-05 ± 8.6e-06 | – | 4.67e-05 ± 2e-05 |
| A42C G59C C67G | < 1e-05 | – | < 1e-05 | – | < 1e-05 |
| G37U A52C | < 1e-05 | – | < 1e-05 | < 1e-05 | – |
| A39G C58G | < 1e-05 | – | 0.000151 ± 2.3e-05 | 3.89e-05 ± 1.2e-05 | 7.24e-05 ± 1.7e-05 |
| G43U U56G | < 1e-05 | < 1e-05 | – | – | – |
| A42C C68U | < 1e-05 | < 1e-05 | – | – | – |
| G38A G59U | < 1e-05 | < 1e-05 | < 1e-05 | < 1e-05 | < 1e-05 |
| G44U C71U | < 1e-05 | – | – | – | – |
| G38A G51U | < 1e-05 | – | – | < 1e-05 | – |
| A39U G63U | < 1e-05 | < 1e-05 | < 1e-05 | < 1e-05 | – |
| A39U G63C | < 1e-05 | – | – | < 1e-05 | – |
| A39U G60U C71U | < 1e-05 | – | – | – | – |
| G44A C50A | < 1e-05 | – | < 1e-05 | < 1e-05 | < 1e-05 |
| G44A C50U | < 1e-05 | – | < 1e-05 | < 1e-05 | < 1e-05 |
| A39U G43C | < 1e-05 | < 1e-05 | – | – | < 1e-05 |
| G44C U45A U46G | < 1e-05 | – | 3.99e-05 ± 2e-05 | < 1e-05 | – |
| G44U G62U | < 1e-05 | < 1e-05 | < 1e-05 | < 1e-05 | < 1e-05 |
| G38A G60U U69G | < 1e-05 | – | < 1e-05 | – | – |
| A42G A64U | < 1e-05 | – | – | – | – |
| A39U U46G C58A | < 1e-05 | – | – | – | – |
| A39U U55G | 0.000507 ± 7.9e-05 | 0.00122 ± 0.0003 | 0.0282 ± 0.0058 | 0.00371 ± 0.00061 | 0.00715 ± 0.0012 |
| G44U A48U C68U | < 1e-05 | – | < 1e-05 | – | – |
| A42G U57G | < 1e-05 | < 1e-05 | 4.59e-05 ± 1.4e-05 | – | 4.17e-05 ± 1.4e-05 |

| Variant | self-cleavage kobs at 40 uM GlcN6P (glucosamine-6-phosphate [1]) [s⁻¹] | self-cleavage kobs at 160 uM GlcN6P (glucosamine-6-phosphate [2]) [s⁻¹] | self-cleavage kobs at 10000 uM GlcN6P (glucosamine-6-phosphate [3]) [s⁻¹] | self-cleavage kobs at 640 uM GlcN6P (glucosamine-6-phosphate [4]) [s⁻¹] | self-cleavage kobs at 2500 uM GlcN6P (glucosamine-6-phosphate [5]) [s⁻¹] |
| --- | --- | --- | --- | --- | --- |
| G38U U47C | < 1e-05 | – | – | < 1e-05 | – |
| G41U A48C U65G | < 1e-05 | – | – | – | – |
| A42G C68U | 0.000563 ± 7.3e-05 | 0.000735 ± 0.00016 | 0.0168 ± 0.0034 | 0.00237 ± 0.00041 | – |
| G38U A48G U57G | < 1e-05 | – | – | – | – |
| A39C C70U | 4.36e-05 ± 6.9e-06 | 7.31e-05 ± 9.7e-06 | 0.000616 ± 7.3e-05 | 0.00019 ± 2.5e-05 | 0.000461 ± 8.2e-05 |
| G44C C58G | < 1e-05 | – | < 1e-05 | < 1e-05 | < 1e-05 |
| G38C A39C G40C C50A A53G U65C | < 1e-05 | – | – | – | – |
| A42C G51U | < 1e-05 | < 1e-05 | – | < 1e-05 | – |
| U45A G63U | < 1e-05 | < 1e-05 | – | < 1e-05 | < 1e-05 |
| G43A G62U | < 1e-05 | < 1e-05 | – | – | < 1e-05 |
| G38C G41U G60C | < 1e-05 | – | – | – | – |
| A39G C61G | < 1e-05 | < 1e-05 | < 1e-05 | < 1e-05 | < 1e-05 |
| G41U A42U C58G G60U | < 1e-05 | – | – | – | – |
| G41A C61G C71U | < 1e-05 | – | – | – | – |
| G37U G40U G44A | < 1e-05 | – | < 1e-05 | – | – |
| G40C G59A | < 1e-05 | < 1e-05 | – | < 1e-05 | < 1e-05 |
| G38A U45A G60C | < 1e-05 | – | < 1e-05 | < 1e-05 | < 1e-05 |
| A39C G40U U49G C70A C71G | < 1e-05 | – | < 1e-05 | – | – |
| G38A C70U | < 1e-05 | – | – | – | – |
| G43U G44C | < 1e-05 | – | < 1e-05 | < 1e-05 | < 1e-05 |
| G40U C61A | < 1e-05 | < 1e-05 | < 1e-05 | < 1e-05 | < 1e-05 |
| G43C G60U | < 1e-05 | < 1e-05 | < 1e-05 | < 1e-05 | < 1e-05 |
| U45A C58U | < 1e-05 | – | 0.000149 ± 2.4e-05 | – | 9.07e-05 ± 1.6e-05 |

| Variant | self-cleavage kobs at 40 uM GlcN6P (glucosamine-6-phosphate [1]) [s⁻¹] | self-cleavage kobs at 160 uM GlcN6P (glucosamine-6-phosphate [2]) [s⁻¹] | self-cleavage kobs at 10000 uM GlcN6P (glucosamine-6-phosphate [3]) [s⁻¹] | self-cleavage kobs at 640 uM GlcN6P (glucosamine-6-phosphate [4]) [s⁻¹] | self-cleavage kobs at 2500 uM GlcN6P (glucosamine-6-phosphate [5]) [s⁻¹] |
| --- | --- | --- | --- | --- | --- |
| G44A U56A C58G | < 1e-05 | – | < 1e-05 | – | – |
| G40U C50A | < 1e-05 | – | – | – | – |
| G43C C61G | < 1e-05 | < 1e-05 | < 1e-05 | < 1e-05 | < 1e-05 |
| A42G U56A G60U | < 1e-05 | – | < 1e-05 | – | < 1e-05 |
| G40C G63U | < 1e-05 | – | < 1e-05 | < 1e-05 | < 1e-05 |
| G41U G51U | < 1e-05 | < 1e-05 | < 1e-05 | < 1e-05 | < 1e-05 |
| G37C G59C A64G C68A | < 1e-05 | < 1e-05 | – | – | – |
| G43C U45G | 8.35e-05 ± 1.2e-05 | 0.000135 ± 2.3e-05 | 0.00211 ± 0.00027 | 0.000694 ± 0.00012 | 0.00109 ± 0.00024 |
| U45A C50A | < 1e-05 | < 1e-05 | – | – | – |
| U45A C50G | < 1e-05 | < 1e-05 | < 1e-05 | < 1e-05 | – |
| G44U A53C A64G | < 1e-05 | – | < 1e-05 | – | – |
| U45A U54A | 0.00179 ± 0.00033 | 0.00611 ± 0.0017 | 0.0819 ± 0.035 | 0.0204 ± 0.0069 | 0.122 ± 0.049 |
| G40U A42C | < 1e-05 | < 1e-05 | – | – | – |
| G38A C58A G66A | < 1e-05 | – | < 1e-05 | – | – |
| G43A U65A | < 1e-05 | < 1e-05 | – | < 1e-05 | – |
| A39C G44A U47G G63C C67G | < 1e-05 | – | < 1e-05 | – | – |
| G38C G44U C58U A64U | < 1e-05 | – | – | – | – |
| G41A C67G C70U | 4.65e-05 ± 2e-05 | – | – | – | – |
| A42C U49A | < 1e-05 | < 1e-05 | – | < 1e-05 | < 1e-05 |
| A39U A53C | 9.69e-05 ± 1.1e-05 | 0.000314 ± 4.2e-05 | 0.00454 ± 0.00047 | 0.000759 ± 8.9e-05 | 0.00228 ± 0.00027 |
